Data reported in paper PMC4336329 (PLoS ONE, 2015).
The whole screen tested about 310,000 compounds, of which about 14,000 (4.5%) showed an effect of 50% or more. The effect is printed as a negative number. This is one part of the list.

Molecular target: human ether-à-go-go-related gene (hERG) potassium channel (human, UniProt Q12809)
Assay: primary screen, population patch clamp on CHO cells stably expressing hERG
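Further: peak tail current of the secondary pulse compared with the same well before compound.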

human ether-à-go-go-related gene (hERG) potassium channel, sequence (Q12809 whole entry, looked up): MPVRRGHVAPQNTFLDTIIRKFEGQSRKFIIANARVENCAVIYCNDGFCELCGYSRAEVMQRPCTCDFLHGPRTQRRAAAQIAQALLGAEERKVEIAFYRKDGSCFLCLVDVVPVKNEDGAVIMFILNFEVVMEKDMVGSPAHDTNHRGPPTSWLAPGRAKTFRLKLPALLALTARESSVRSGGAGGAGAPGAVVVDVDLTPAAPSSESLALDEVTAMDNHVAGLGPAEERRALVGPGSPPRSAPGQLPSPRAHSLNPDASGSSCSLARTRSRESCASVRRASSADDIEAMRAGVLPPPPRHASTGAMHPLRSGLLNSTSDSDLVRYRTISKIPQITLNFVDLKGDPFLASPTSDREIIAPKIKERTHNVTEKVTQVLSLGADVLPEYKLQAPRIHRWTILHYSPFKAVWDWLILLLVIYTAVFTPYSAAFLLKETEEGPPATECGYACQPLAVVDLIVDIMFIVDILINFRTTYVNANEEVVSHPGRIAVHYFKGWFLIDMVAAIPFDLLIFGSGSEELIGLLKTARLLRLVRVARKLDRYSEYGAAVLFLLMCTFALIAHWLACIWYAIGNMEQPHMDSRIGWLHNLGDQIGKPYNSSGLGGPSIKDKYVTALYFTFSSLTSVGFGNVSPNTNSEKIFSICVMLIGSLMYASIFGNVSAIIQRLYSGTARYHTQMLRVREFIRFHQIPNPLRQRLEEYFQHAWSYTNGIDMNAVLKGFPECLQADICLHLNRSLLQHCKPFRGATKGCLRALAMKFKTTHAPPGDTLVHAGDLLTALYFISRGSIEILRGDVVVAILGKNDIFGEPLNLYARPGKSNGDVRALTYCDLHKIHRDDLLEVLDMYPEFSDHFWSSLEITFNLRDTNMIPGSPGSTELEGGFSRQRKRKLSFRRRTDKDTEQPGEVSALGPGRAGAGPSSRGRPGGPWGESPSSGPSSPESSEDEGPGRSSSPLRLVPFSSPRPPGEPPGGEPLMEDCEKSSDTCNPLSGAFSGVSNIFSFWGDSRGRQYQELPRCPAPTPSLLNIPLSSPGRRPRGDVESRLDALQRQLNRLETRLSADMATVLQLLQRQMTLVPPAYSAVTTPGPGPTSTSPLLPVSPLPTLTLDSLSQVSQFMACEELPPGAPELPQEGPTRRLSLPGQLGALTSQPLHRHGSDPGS

SMILES	hERG current change (%, negative = inhibition) at 10uM [%]
Cl.O=C(c1ccco1)N1CCN(Cc2nnnn2CC2CCCO2)CC1 (centres unmarked)	-3.16
COc1ccc(CNC(=O)c2[nH]c(C)c(C(C)=O)c2C)cc1	9.67
O=C(NNC(=O)c1ccc(F)cc1F)c1ccc(-n2cnnn2)cc1	13.6
CCOC(=O)N1CCN(C(=O)c2ccccc2Oc2ccccc2)CC1	-11.1
COc1ccc(F)c(CN2CCC(n3nccc3NC(=O)C3CCOC3)CC2)c1 (centres unmarked)	5.47
COc1cccc(N2CCN(C(=O)CCNS(=O)(=O)c3ccc4c(c3)c(=O)n(C)c(=O)n4C)CC2)c1	7.5
CN(CCCNC(=O)C1CCC(CNS(=O)(=O)c2ccccc2)CC1)Cc1ccccc1 (centres unmarked)	-34
CC(C)CCn1cnc2c([nH]c3cccc(Cl)c32)c1=O	4.47
COc1ccc(C(=O)C2CCCN(C(=O)Cn3cncn3)C2)cc1OC (centres unmarked)	21.6
CS(=O)(=O)c1cccc(C(=O)NCc2ccccc2)c1	-0.394
COc1ccc(S(=O)(=O)N2CCCCCC2)cc1	1.12
CCOc1ccc(C(=O)CCC(=O)N2CCN(S(=O)(=O)c3cccc(F)c3)CC2)cc1	-30.7
CCn1c(C(C)NC(=O)c2cccs2)nc2ccccc21 (centres unmarked)	-0.975
C=CCNC(=O)c1ccc2nccnc2c1	1.49
CSc1nc(C)c2c(n1)N(c1ccc(O)cc1)CC2	4.88
CC(C)[C@H](NC(=O)N1CCn2c1nc1ccccc12)C(=O)NCc1ccco1	11.1
CN(C)c1nc(N)c(C(=O)N=C(N)N)nc1Cl.Cl	-20.1
Cc1cccc(-n2nc3c(c2NC(=O)c2ccc(Br)o2)CSC3)c1	-3.59
Cc1c(S(=O)(=O)N2CCCCC2)c(=O)n(C)c(=O)n1C	-0.159
CCOc1cc(/C=N/NC(N)=O)cc(Br)c1OCc1ccccc1	3.4
O=C(NCCN1CCOCC1)C(=O)NCC1OCCN1C(=O)c1ccc(Cl)cc1 (centres unmarked)	4.46
COc1ccc(O)c(C2(O)C(=O)c3ccccc3C2=O)c1	16.1
CN1CCN(C(=O)CCn2c(=O)c3cccn3c3cccnc32)CC1	8.62

SMILES	hERG current change (%, negative = inhibition) at 10uM [%]
Cc1cccc(Sc2nc(-c3ccccc3)ccc2C#N)c1	3.42
Clc1ccc(-c2ccc(/C=N/Nc3nncc(-c4ccccc4)n3)o2)cc1	20.8
CCOc1cc(/C=N/Nc2nc(C)cc(=O)[nH]2)ccc1O	31.7
O=C(N/N=C\c1cc2c(cc1[N+](=O)[O-])OCO2)c1cccs1	-2.16
COc1ccc(CC(=O)O/N=C(\N)Cc2ccc(OC)c(OC)c2)cc1	4.5
Cc1sc2nc(CN3CCCC3)nc(N3CCN(S(=O)(=O)c4ccccc4)CC3)c2c1C	-67
CC(=O)c1ccc(NC(=O)c2cn(-c3ccccc3)nc2-c2ccncc2)cc1	-15.7
CC(N=Cc1c(O)n(C2CC2)c(=S)[nH]c1=O)c1ccccc1 (centres unmarked)	5.29
Cc1nc2c(o1)CCc1ccccc1C2N1CCN(C)CC1.O=C([O-])/C=C\C(=O)[O-] (centres unmarked)	12.4
CCN(CC)S(=O)(=O)c1ccc2nc(NC(=O)c3cccs3)sc2c1	2.85
Cc1ccc(NP(=O)(Oc2ccccc2F)Oc2ccccc2F)cc1C	7.46
COc1cccc(CNc2ccc3[nH]c(=O)[nH]c3c2)c1OCc1ccccc1	5.57
CC(=O)c1c(C)[nH]c(C)c1C(C)=O	4.16
Nc1nc(-c2c[nH]c3ccccc23)cs1	17.5
CCS(=O)(=O)N1CCCC(C(=O)NC2CCCC2)C1 (centres unmarked)	-2.59
CCNC(=S)Nc1ccc(OCc2nc3ccccc3s2)cc1	11.5
O=S(=O)(Nc1ccc2cn[nH]c2c1)c1ccccc1	3.23
COc1ccc(N=C2SC(CC(=O)Nc3ccccc3)C(=O)N2Cc2ccccn2)cc1 (centres unmarked)	5.59
CCC(=O)Nc1cc(-c2cc3ccccc3oc2=O)ccc1OC	-29.6
COc1ccc(OC)c(N/C=C2/CCCCC2=O)c1	-11.1
CC(=O)NN1C(=O)/C(=C\c2ccc(O)cc2)SC1=S	-0.495
O=C(NC1(C(F)(F)F)N=C(c2ccccc2)NC1=O)c1ccccc1F (centres unmarked)	11.5
CCOC(=O)N1CCN(CC(=O)Nc2c(C(=O)OC)[nH]c3cc(C)ccc23)CC1	-32.5

SMILES	hERG current change (%, negative = inhibition) at 10uM [%]
CCOC(=O)Cc1cc(=O)c2cc(C)ccc2[nH]1	16.7
Cc1ccc(NC(=O)/C(=C/c2ccco2)c2ccccc2)c(C)c1	8.65
O=C(CN1CCN(c2ccccc2F)CC1)Nc1cccnc1Cl	11.1
O=C(NCCN1CCCCC1)Nc1ccccc1F	7.87
COCCNC(=O)C1CC(c2ccccc2C(F)(F)F)=NO1 (centres unmarked)	12.7
COc1cc(NC(=O)CN2CCN(Cc3ccc4c(c3)OCO4)CC2)cc(OC)c1.O=C(O)C(=O)O	-47
CCCCn1c(N)c(N(Cc2ccccc2OC)C(=O)COc2cc(C)ccc2Cl)c(=O)[nH]c1=O	10.1
COc1ccnc(CS(=O)c2nc3cc(C(O)(F)F)ccc3[n-]2)c1OC.[Na+] (centres unmarked)	-30.1
CCN(CC)/C(Sc1ccccc1)=C(/C(Cl)=C(Cl)Cl)[N+](=O)[O-]	-3.92
Cn1sc(NC(=O)c2cccc(Cl)c2)nc1=O	2.35
CS(=O)(=O)N1N=C(c2ccco2)CC1c1ccccc1Cl (centres unmarked)	5.49
O=C(Nc1ncc(Cc2cccc([N+](=O)[O-])c2)s1)c1ccco1	-6.91
COc1cc(CN2CCN(CCCc3ccccc3)C(CCO)C2)cc(OC)c1O (centres unmarked)	-61.5
Cc1ccc2cccc(OCC(=O)Nc3cccc(S(=O)(=O)N4CCCC4)c3)c2n1	4.92
CCC(C)N1C(=O)/C(=C\c2cnc(N(C)C)nc2)C(=O)NC1=S (centres unmarked)	17.4
CCNc1ccc(S(=O)(=O)N(C)C)cc1NCC(=O)Nc1ccccc1Cl	-5.8
CCOc1nc(NCc2ccco2)nc(Nc2ccc(OC)cc2)n1	2.06
Cc1cc(NS(=O)(=O)c2ccc(NC(=O)C(F)(F)F)cc2)nc(C)n1	21.3
Cc1ccc[n+](CC(=O)c2ccccc2)c1.[Br-]	13.7
COc1ccc(S(=O)(=O)N2CCCCC2)cc1NC(=O)CSc1ncnc2ccccc12	-51.2
COc1ccc(N=Cc2c(O)cc(C)oc2=O)cc1	11.7
O=[N+]([O-])c1ccccc1Oc1ccc(C(F)(F)F)cn1	-7.4
Nc1ccc(C(=O)N2N=C(c3ccc(F)cc3)CC2(O)C(F)(F)F)cc1 (centres unmarked)	-2.02

SMILES	hERG current change (%, negative = inhibition) at 10uM [%]
COC(=O)c1ccc(COc2ccc(/C=N/N3CCN(C)CC3)cc2)cc1	14.2
O=C(Oc1ccc(OC(=O)c2ccncc2)cc1)c1ccncc1	-1.78
COC(=O)c1cc(CNC(=O)Cc2ccsc2)ccc1OC	7.23
O=C(NNS(=O)(=O)c1ccccc1)c1cccs1	3.77
C=CCn1c(=O)c(C(=O)NCCc2ccccc2)c(O)c2ccccc21	2.07
CCn1cc(CCC(=O)NCc2cccc(OC)c2OC)c2ccccc21	8.51
CCOc1ccc(S(=O)(=O)NCCC(=O)N2CC=C(c3ccccc3)CC2)cc1	-30.1
Cc1ccc(N(C)C(=O)c2cc(S(=O)(=O)N3CCc4ccccc43)cn2C)cc1	-30.7
CCC(=NCCCn1ccnc1)c1c(O)n(-c2ccccc2)c(=O)[nH]c1=O	7.4
Cc1ccc(NC2CCCN(C(=O)c3ccoc3C)C2)cc1C (centres unmarked)	-1.68
CCc1ccccc1S(=O)(=O)Cc1ccc(C(=O)NC2CCCC2)o1	12.1
O=C(CSc1nnc(CNC(=O)C23CC4CC(CC(C4)C2)C3)n1-c1ccccc1)Nc1ccccc1	-1.89
COC(=O)/C(=C\Nc1cccc(Cl)c1C)c1ncc(C(F)(F)F)cc1Cl	7.02
Cc1nc(N2CCN(Cc3nc4ccccc4[nH]3)CC2)c2oc3ccccc3c2n1	-52.1
Cc1cccc(-c2c3c(=O)n(C)c(=O)n(C)c3cn2-c2ccc(O)cc2)c1	-6.98
CCOc1ccccc1NC(=O)CCS(=O)(=O)c1cccs1	14.3
Cc1ccc(N(C(C)C(=O)Nc2ccccc2C(=O)N2CCOCC2)S(C)(=O)=O)cc1C (centres unmarked)	1.01
CCN(CC)c1ccc(/C=N/NC(=O)c2ccc(Br)o2)cc1	-23.7
CCN(CC(=O)Nc1sc2c(c1C#N)CCC(C)C2)Cc1nc2ccccc2c(=O)[nH]1 (centres unmarked)	1.57
C#CCOCCOCCOCCNc1nc(N2CCOCC2)nc(N2CCN(C(=O)[C@H]([C@@H](C)CC)n3cc(CCC[NH+]=C(N)N)nn3)CC2)n1.[Cl-]	-0.117
